The supplement of paper PMC10126150
Sequences with one replicate were seen in a single cluster, so their values are uncertain.

Tested on: ATP
Experiment: switch fluorescence ratio, 500 uM ATP over buffer (Cy3 cluster intensity, sum of 5 cycles each) (fold (ratio)); higher = stronger signal-on switching upon ATP binding; sequences stand for … in TCGTCGGCAGCGTCAGATGTGTATAAGAGACAGTTTTTTTTTTTTTTTTTTTTTTTTT…TC
Conditions: aptamer strand: ATP DNA aptamer (quencher-CACCTGGGGGAGTATTGCGGAGGAAGG + anchor), 100 nM annealed; ATP concentration: 500 uM; one replicate
How it was run: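 Per cluster, summed Cy3 intensity from the target cycles was divided by that from the buffer cycles to give the fluorescence ratio, then averaged per switch-domain sequence. Clusters outside 100-1000 RFU were excluded. The Cy3-labelled switching-strand clusters, on a modified Illumina MiSeq flow-cell, were annealed to 100 nM quencher-labelled ATP aptamer and imaged in selection buffer, then after 15 min with 500 uM ATP at 22 °C, for five cycles with NaOH stripping and re-annealing between them.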
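Note: ATP exposure 15 min at 22 °C before imaging.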

Row | Sequence | switch fluorescence ratio
1 | CATTCTAGGT | 0.993
2 | CATTCTCGGC | 1.1
3 | CATTGCCGCG | 1.02
4 | CATTGCTCCG | 1.93
5 | CATTGGCCCG | 1.02
6 | CATTGGCTGG | 0.968
7 | CATTGGTCAC | 1.01
8 | CATTGGTGTT | 1
9 | CATTGGTTTT | 0.978
10 | CATTGTAGCT | 1.02
11 | CATTGTTCGT | 0.997
12 | CATTTCCAGA | 1.05
13 | CATTTCTTTC | 1.02
14 | CATTTGATTT | 0.995
15 | CATTTGGGAG | 1.03
16 | CATTTTCGCT | 0.968
17 | CATTTTTTCT | 1.03
18 | CCAAAGCATT | 6.17
19 | CCAAATGCTC | 1.66
20 | CCAACAAAGG | 1.04
21 | CCAACCTTTT | 1.03
22 | CCAACGCCTA | 2.44
23 | CCAACGTGCA | 1.28
24 | CCAACTAGA | 1.02
25 | CCAAGCAAAG | 2.65

Row | Sequence | switch fluorescence ratio
26 | CCAAGGATCC | 1
27 | CCAAGGCCCT | 1
28 | CCAAGGTGCG | 1.36
29 | CCAAGGTTAA | 0.983
30 | CCAATAAACG | 1.05
31 | CCAATAAGTT | 0.963
32 | CCAATGCCCT | 1.06
33 | CCAATGCTAA | 1.26
34 | CCAATGGCGT | 1.01
35 | CCAATGTGGC | 1.06
36 | CCAATTTCGC | 1.02
37 | CCACAAGAGT | 1.2
38 | CCACACGG | 1.11
39 | CCACAGAGC | 1.02
40 | CCACAGAGGT | 1.07
41 | CCACATACGC | 1.63
42 | CCACATAGGA | 1.01
43 | CCACATCATG | 1.02
44 | CCACCGGAAG | 1.27
45 | CCACCGGGAA | 1.18
46 | CCACCGTAGA | 2.37
47 | CCACCTTCGA | 1.2
48 | CCACGACGCA | 2.45
49 | CCACGAGAGC | 1.07
50 | CCACGATAAT | 1.21

Row | Sequence | switch fluorescence ratio
51 | CCACGATACA | 1.94
52 | CCACGCCGTT | 0.998
53 | CCACGCGCGA | 2.55
54 | CCACGCGGAA | 1.14
55 | CCACGGATGT | 1.04
56 | CCACGGCTCG | 1.02
57 | CCACGTCTTA | 1.02
58 | CCACGTGAG | 1.07
59 | CCACGTGAGA | 1.07
60 | CCACGTTGGG | 0.999
61 | CCACTAGGGT | 1.1
62 | CCACTATATC | 1.48
63 | CCACTCGGGG | 1.02
64 | CCACTCGTTG | 1.01
65 | CCACTGATGC | 1.31
66 | CCACTGCGAG | 1.69
67 | CCACTGCTGA | 1.57
68 | CCACTTAGCG | 1.04
69 | CCACTTCATC | 1.12
70 | CCAGAAATTT | 0.992
71 | CCAGAATGTT | 0.961
72 | CCAGACGGGT | 0.987
73 | CCAGACTCTC | 1.08
74 | CCAGAGTATA | 1.22
75 | CCAGATCAGC | 0.994

Row | Sequence | switch fluorescence ratio
76 | CCAGATCATA | 0.98
77 | CCAGATGTGG | 0.99
78 | CCAGCAACTG | 1.24
79 | CCAGCAATTT | 4.73
80 | CCAGCGCGTA | 1.16
81 | CCAGCTCAT | 1.04
82 | CCAGCTGGA | 0.977
83 | CCAGCTGGGA | 1.03
84 | CCAGCTGGTC | 0.981
85 | CCAGGAACCG | 1.05
86 | CCAGGACAGC | 1.09
87 | CCAGGCGGTC | 1.08
88 | CCAGGGAAGG | 1.11
89 | CCAGGGCATG | 1.06
90 | CCAGGGCCGT | 1.06
91 | CCAGGGTGCG | 1.21
92 | CCAGGTAGGT | 1.5
93 | CCAGGTGTAT | 2.64
94 | CCAGTAACAT | 1.02
95 | CCAGTACGGC | 1.01
96 | CCAGTCAAAA | 1.03
97 | CCAGTCAGCG | 1
98 | CCAGTCCTGC | 1.02
99 | CCAGTGACAC | 0.994
100 | CCAGTGCCTC | 1.02
